Assay [1] deals with T1, Hook2 (endogenous) (human (endogenous in HEK293T)) (UniProt Q96ED9).
T1 sequence: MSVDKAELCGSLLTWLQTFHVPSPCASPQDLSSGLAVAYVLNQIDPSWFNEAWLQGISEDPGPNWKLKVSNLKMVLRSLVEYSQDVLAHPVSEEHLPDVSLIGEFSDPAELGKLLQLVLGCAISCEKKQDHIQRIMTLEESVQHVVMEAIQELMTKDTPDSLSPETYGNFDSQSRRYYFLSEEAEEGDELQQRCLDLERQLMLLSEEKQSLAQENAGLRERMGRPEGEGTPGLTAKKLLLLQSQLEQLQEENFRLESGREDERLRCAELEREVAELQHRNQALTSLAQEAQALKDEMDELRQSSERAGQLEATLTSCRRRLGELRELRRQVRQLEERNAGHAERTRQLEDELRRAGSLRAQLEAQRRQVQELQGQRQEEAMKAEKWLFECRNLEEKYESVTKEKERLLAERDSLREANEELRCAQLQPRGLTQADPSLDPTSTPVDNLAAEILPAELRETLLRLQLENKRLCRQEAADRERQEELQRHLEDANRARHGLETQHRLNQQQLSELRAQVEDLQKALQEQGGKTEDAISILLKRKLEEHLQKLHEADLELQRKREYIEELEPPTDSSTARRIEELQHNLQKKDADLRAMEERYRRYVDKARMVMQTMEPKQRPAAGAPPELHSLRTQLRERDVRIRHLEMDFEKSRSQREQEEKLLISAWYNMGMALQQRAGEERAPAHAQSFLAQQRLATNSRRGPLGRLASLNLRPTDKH
Kind of assay: co-IP; endogenous proteins; HEK293T lysates in TAP lysis buffer (20 mM Tris-HCl pH 7.4, 150 mM NaCl, 0.5% NP-40) with antibody on protein-A/G beads, 3 h, 4°C; cells asynchronous or synchronized (G2, prometaphase, metaphase/anaphase, cytokinesis), with control or other siRNAs or Hook2 plasmids; immunoblot. On the technique in general: Immunoblotting shows a protein as a band on a membrane.

Chains of the proteins cited; added tags and fusions are not shown. Residues count along the entry.
UniProt Q14203: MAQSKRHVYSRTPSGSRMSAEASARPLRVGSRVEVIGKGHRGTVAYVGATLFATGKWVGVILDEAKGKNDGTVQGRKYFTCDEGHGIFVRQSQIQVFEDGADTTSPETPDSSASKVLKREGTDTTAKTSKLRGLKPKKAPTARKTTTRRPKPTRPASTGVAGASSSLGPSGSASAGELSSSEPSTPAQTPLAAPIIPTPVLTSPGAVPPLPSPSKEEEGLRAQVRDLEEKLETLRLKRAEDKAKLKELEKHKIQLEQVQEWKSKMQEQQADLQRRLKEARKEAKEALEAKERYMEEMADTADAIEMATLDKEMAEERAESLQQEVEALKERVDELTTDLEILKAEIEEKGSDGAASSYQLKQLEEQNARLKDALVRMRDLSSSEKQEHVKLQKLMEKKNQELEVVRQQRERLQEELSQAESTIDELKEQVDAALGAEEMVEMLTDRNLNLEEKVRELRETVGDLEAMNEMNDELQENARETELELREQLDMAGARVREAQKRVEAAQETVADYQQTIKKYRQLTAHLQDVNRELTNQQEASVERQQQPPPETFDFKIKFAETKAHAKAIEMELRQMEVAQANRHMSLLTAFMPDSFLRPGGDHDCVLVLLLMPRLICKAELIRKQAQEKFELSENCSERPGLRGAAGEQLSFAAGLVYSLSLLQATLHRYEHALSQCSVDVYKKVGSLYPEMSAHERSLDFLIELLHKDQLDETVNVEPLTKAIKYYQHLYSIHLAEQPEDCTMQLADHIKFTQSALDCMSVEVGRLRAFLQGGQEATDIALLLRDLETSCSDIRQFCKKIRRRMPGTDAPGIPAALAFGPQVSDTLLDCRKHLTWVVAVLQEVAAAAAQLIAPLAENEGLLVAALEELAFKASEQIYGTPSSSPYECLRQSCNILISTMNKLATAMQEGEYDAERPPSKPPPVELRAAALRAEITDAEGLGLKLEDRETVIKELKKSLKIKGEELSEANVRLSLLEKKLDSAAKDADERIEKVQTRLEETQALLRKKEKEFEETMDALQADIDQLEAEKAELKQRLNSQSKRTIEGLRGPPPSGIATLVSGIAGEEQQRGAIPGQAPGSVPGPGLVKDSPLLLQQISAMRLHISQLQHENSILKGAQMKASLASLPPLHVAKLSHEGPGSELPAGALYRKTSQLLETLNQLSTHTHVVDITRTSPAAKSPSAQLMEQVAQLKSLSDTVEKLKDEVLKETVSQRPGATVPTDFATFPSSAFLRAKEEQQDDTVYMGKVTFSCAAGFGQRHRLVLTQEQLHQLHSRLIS
UniProt Q9Y6G9, residues 389-523: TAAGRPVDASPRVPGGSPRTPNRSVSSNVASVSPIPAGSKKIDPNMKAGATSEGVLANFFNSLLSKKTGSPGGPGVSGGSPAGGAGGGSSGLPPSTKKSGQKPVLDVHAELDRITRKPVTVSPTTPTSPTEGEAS
UniProt Q96GD4: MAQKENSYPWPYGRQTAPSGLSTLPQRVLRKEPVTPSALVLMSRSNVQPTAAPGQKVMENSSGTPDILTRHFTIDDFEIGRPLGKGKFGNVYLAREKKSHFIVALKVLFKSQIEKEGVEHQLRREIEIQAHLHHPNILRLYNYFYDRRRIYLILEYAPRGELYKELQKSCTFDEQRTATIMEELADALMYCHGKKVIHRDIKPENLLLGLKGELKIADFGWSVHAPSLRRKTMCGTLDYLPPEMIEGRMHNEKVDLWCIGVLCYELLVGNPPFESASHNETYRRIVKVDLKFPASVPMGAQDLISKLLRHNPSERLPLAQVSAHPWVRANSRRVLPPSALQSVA
UniProt P61163: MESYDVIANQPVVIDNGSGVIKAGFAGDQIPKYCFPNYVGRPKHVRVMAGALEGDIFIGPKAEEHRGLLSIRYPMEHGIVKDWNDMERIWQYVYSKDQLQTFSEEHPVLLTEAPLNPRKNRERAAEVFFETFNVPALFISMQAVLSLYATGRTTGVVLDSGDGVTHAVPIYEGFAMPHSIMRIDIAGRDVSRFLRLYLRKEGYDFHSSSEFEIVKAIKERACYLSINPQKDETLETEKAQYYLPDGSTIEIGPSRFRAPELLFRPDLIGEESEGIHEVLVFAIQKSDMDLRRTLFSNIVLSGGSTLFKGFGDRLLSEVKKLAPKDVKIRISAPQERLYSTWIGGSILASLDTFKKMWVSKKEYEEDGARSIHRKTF
UniProt Q13561: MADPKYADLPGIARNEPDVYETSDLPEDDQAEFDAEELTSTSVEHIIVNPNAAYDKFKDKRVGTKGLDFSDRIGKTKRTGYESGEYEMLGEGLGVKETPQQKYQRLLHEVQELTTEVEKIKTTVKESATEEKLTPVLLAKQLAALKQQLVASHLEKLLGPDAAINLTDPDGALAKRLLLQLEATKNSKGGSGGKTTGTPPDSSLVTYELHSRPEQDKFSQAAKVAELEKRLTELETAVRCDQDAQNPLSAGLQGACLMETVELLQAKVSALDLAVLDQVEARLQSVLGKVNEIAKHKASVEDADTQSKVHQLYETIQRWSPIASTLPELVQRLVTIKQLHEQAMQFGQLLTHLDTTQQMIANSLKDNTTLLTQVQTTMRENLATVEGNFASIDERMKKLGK

Assay [2] deals with p150^glued (human (endogenous in HEK293T)) (UniProt Q14203). Kind of assay: co-IP; lysates of HEK293T cells transfected with HA-tagged Hook2 (WT, Q143A, I150A; also siRNA-resistant forms in Hook2 siRNA-treated cells); IP with anti-DIC or anti-p150^glued, immunoblot anti-HA.
Assay [3] addresses GST-tagged LIC1 (389–523 aa) (UniProt Q9Y6G9). Put plainly: pull-down; 2 µg MBP-tagged Hook2 fragments incubated with GST or GST-LIC1 (389–523 aa) on glutathione beads, 2 h, 250 µl of 50 mM Tris pH 7.4, 100 mM NaCl, 1 mM DTT, 0.1% Tween 20, 2 mg/ml BSA; immunoblot anti-MBP; both purified.

Positions count from the first letter of the chain named. Names and notes keep the numbering of the source. No constants are given. Whether binding was seen depends on the method and setting. For some of these results: Binding seen in cells or lysates may run through a third protein. Some results given as binding are weak or reduced against the parent protein; the word gives no strength. For some of these results: Tags and fused reporters may be left off the sequences shown.

For the molecule “Aurora B kinase (from UniProt Q96GD4 1-344)”, in assay [1], the binding result is given as “binds”.

Regarding Arp1 (from UniProt P61163 1-376), the binding entry in assay [1] was “binds”.

As for “p50/dynamitin (from UniProt Q13561 1-401)”, the binding entry in assay [1] was “binds”.

B1: HA-tagged Hook2 WT (protein, UniProt Q96ED9 1-719)
chain: T1 sequence
Regarding B1, the binding entry in assay [2] is “binds”.

B2: HA-tagged Hook2 I150A (protein, UniProt Q96ED9 1-719)
chain: T1 sequence with I150A
Take B2: the binding result in assay [2] is “binds”.

B3: HA-tagged Hook2 Q143A (protein, UniProt Q96ED9 1-719)
chain: T1 sequence with Q143A
With B3, in assay [2], the binding entry is “binds”.

B4: MBP-tagged Hook2 Hook+CC1A (N230) (domain or fragment, UniProt Q96ED9 1-230)
chain: MSVDKAELCGSLLTWLQTFHVPSPCASPQDLSSGLAVAYVLNQIDPSWFNEAWLQGISEDPGPNWKLKVSNLKMVLRSLVEYSQDVLAHPVSEEHLPDVSLIGEFSDPAELGKLLQLVLGCAISCEKKQDHIQRIMTLEESVQHVVMEAIQELMTKDTPDSLSPETYGNFDSQSRRYYFLSEEAEEGDELQQRCLDLERQLMLLSEEKQSLAQENAGLRERMGRPEGEGT
As for B4, the binding result in assay [3] is “binds”.

B5: MBP-tagged Hook2 Hook+CC1 (N427) WT (domain or fragment, UniProt Q96ED9 1-427)
chain: MSVDKAELCGSLLTWLQTFHVPSPCASPQDLSSGLAVAYVLNQIDPSWFNEAWLQGISEDPGPNWKLKVSNLKMVLRSLVEYSQDVLAHPVSEEHLPDVSLIGEFSDPAELGKLLQLVLGCAISCEKKQDHIQRIMTLEESVQHVVMEAIQELMTKDTPDSLSPETYGNFDSQSRRYYFLSEEAEEGDELQQRCLDLERQLMLLSEEKQSLAQENAGLRERMGRPEGEGTPGLTAKKLLLLQSQLEQLQEENFRLESGREDERLRCAELEREVAELQHRNQALTSLAQEAQALKDEMDELRQSSERAGQLEATLTSCRRRLGELRELRRQVRQLEERNAGHAERTRQLEDELRRAGSLRAQLEAQRRQVQELQGQRQEEAMKAEKWLFECRNLEEKYESVTKEKERLLAERDSLREANEELRCAQLQ
Consider B5, for which the binding entry in assay [3] is reported as “binds”.

B6: MBP-tagged Hook2 N427 I150A (domain or fragment, UniProt Q96ED9 1-427)
chain: B5 chain with I150A
Regarding B6, the binding entry in assay [3] is “no binding”.

B7: MBP-tagged Hook2 N427 Q143A (domain or fragment, UniProt Q96ED9 1-427)
chain: B5 chain with Q143A
On to B7, for which the binding result in assay [3] was “no binding”.

B8: MBP-tagged Hook2-Hook (N179) (domain or fragment, UniProt Q96ED9 1-179)
chain: MSVDKAELCGSLLTWLQTFHVPSPCASPQDLSSGLAVAYVLNQIDPSWFNEAWLQGISEDPGPNWKLKVSNLKMVLRSLVEYSQDVLAHPVSEEHLPDVSLIGEFSDPAELGKLLQLVLGCAISCEKKQDHIQRIMTLEESVQHVVMEAIQELMTKDTPDSLSPETYGNFDSQSRRYYF
On to B8, for which, in assay [3], the binding entry is listed as “binds”.

B9: KIF4 (protein, UniProt O95239 1-1232)
chain: MKEEVKGIPVRVALRCRPLVPKEISEGCQMCLSFVPGEPQVVVGTDKSFTYDFVFDPSTEQEEVFNTAVAPLIKGVFKGYNATVLAYGQTGSGKTYSMGGAYTAEQENEPTVGVIPRVIQLLFKEIDKKSDFEFTLKVSYLEIYNEEILDLLCPSREKAQINIREDPKEGIKIVGLTEKTVLVALDTVSCLEQGNNSRTVASTAMNSQSSRSHAIFTISLEQRKKSDKNSSFRSKLHLVDLAGSERQKKTKAEGDRLKEGININRGLLCLGNVISALGDDKKGGFVPYRDSKLTRLLQDSLGGNSHTLMIACVSPADSNLEETLNTLRYADRARKIKNKPIVNIDPQTAELNHLKQQVQQLQVLLLQAHGGTLPGSITVEPSENLQSLMEKNQSLVEENEKLSRGLSEAAGQTAQMLERIILTEQANEKMNAKLEELRQHAACKLDLQKLVETLEDQELKENVEIICNLQQLITQLSDETVACMAAAIDTAVEQEAQVETSPETSRSSDAFTTQHALRQAQMSKELVELNKALALKEALARKMTQNDSQLQPIQYQYQDNIKELELEVINLQKEKEELVLELQTAKKDANQAKLSERRRKRLQELEGQIADLKKKLNEQSKLLKLKESTERTVSKLNQEIRMMKNQRVQLMRQMKEDAEKFRQWKQKKDKEVIQLKERDRKRQYELLKLERNFQKQSNVLRRKTEEAAAANKRLKDALQKQREVADKRKETQSRGMEGTAARVKNWLGNEIEVMVSTEEAKRHLNDLLEDRKILAQDVAQLKEKKESGENPPPKLRRRTFSLTEVRGQVSESEDSITKQIESLETEMEFRSAQIADLQQKLLDAESEDRPKQRWENIATILEAKCALKYLIGELVSSKIQVSKLESSLKQSKTSCADMQKMLFEERNHFAEIETELQAELVRMEQQHQEKVLYLLSQLQQSQMAEKQLEESVSEKEQQLLSTLKCQDEELEKMREVCEQNQQLLRENEIIKQKLTLLQVASRQKHLPKDTLLSPDSSFEYVPPKPKPSRVKEKFLEQSMDIEDLKYCSEHSVNEHEDGDGDDDEGDDEEWKPTKLVKVSRKNIQGCSCKGWCGNKQCGCRKQKSDCGVDCCCDPTKCRNRQQGKDSLGTVERTQDSEGSFKLEDPTEVTPGLSFFNPVCATPNSKILKEMCDVEQVLSKKTPPAPSPFDLPELKHVATEYQENKAPGKKKKRALASNTSFFSGCSPIEEEAH
In the case of B9, the binding result in assay [1] is on record as “binds”.

B10: CYK4 (protein, UniProt Q9H0H5 1-632)
chain: MDTMMLNVRNLFEQLVRRVEILSEGNEVQFIQLAKDFEDFRKKWQRTDHELGKYKDLLMKAETERSALDVKLKHARNQVDVEIKRRQRAEADCEKLERQIQLIREMLMCDTSGSIQLSEEQKSALAFLNRGQPSSSNAGNKRLSTIDESGSILSDISFDKTDESLDWDSSLVKTFKLKKREKRRSTSRQFVDGPPGPVKKTRSIGSAVDQGNESIVAKTTVTVPNDGGPIEAVSTIETVPYWTRSRRKTGTLQPWNSDSTLNSRQLEPRTETDSVGTPQSNGGMRLHDFVSKTVIKPESCVPCGKRIKFGKLSLKCRDCRVVSHPECRDRCPLPCIPTLIGTPVKIGEGMLADFVSQTSPMIPSIVVHCVNEIEQRGLTETGLYRISGCDRTVKELKEKFLRVKTVPLLSKVDDIHAICSLLKDFLRNLKEPLLTFRLNRAFMEAAEITDEDNSIAAMYQAVGELPQANRDTLAFLMIHLQRVAQSPHTKMDVANLAKVFGPTIVAHAVPNPDPVTMLQDIKRQPKVVERLLSLPLEYWSQFMMVEQENIDPLHVIENSNAFSTPQTPDIKVSLLGPVTTPEHQLLKTPSSSSLSQRVRSTLTKNTPRFGSKSKSATNLGRQGNFFASPMLK
B10: the binding entry in assay [1] was “binds”.

These data come from publication PMC6400558 (2019).
